Assay results: patent US4585859A, “Analogues of morpholinyl daunorubicin and morpholinyl doxorubicin” (priority 1984, dated 1986)
Like-named read-outs stand apart in the source and are kept apart here.

System: L1210 leukemia
Conditions: ip L1210

Compound: COc1cccc2c1C(=O)c1c(O)c3c(c(O)c1C2=O)C[C@@](O)(C(=O)CO)C[C@@H]3O[C@H]1C[C@H](N2CCOCC2)[C@H](O)[C@H](C)O1 [NSC 354646, 3'-deamino-3'-(4"-morpholinyl)doxorubicin]
- Mouse Antitumor Efficacy at Optimum Dose, % T/C (d 1, ip): 152%
- Optimum Dose (d 1, ip): 0.05 mg/kg
- Mouse Antitumor Efficacy at Optimum Dose, % T/C (qd 1-9, ip): > 141%
- Optimum Dose (qd 1-9, ip): 0.025 mg/kg
